The supplement of paper PMC9446081
About 220 (0.56%) of roughly 39,000 compounds showed activity. The list shows a part of the results.

Tested on: Escherichia coli K-12 BW25113
Assay: relative growth (OD600 normalised to plate interquartile mean) (fraction); higher = less growth inhibition, active = 0.2 or less
Settings: 50 µM; LB; incubation time: overnight (16-24 h)
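Also: static incubation at 37 °C against the wild-type strain, values averaged over two biological replicates.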

Row | SMILES | relative growth
1 | COc1ccc(S(=O)(=O)N(C)C[C@H]2Oc3ccc(NC(=O)NC(C)C)cc3CC(=O)N([C@@H](C)CO)C[C@@H]2C)cc1 | inactive: 1
2 | COc1ccc(CN(C)C[C@H]2OCCCC[C@@H](C)Oc3ccc(NC(=O)CCC(F)(F)F)cc3C(=O)N([C@@H](C)CO)C[C@H]2C)cc1 | inactive: 1.01
3 | C[C@@H]1CN([C@@H](C)CO)C(=O)c2cc(NC(=O)C3CCCCC3)ccc2O[C@H]1CN(C)Cc1ccc(Cl)c(Cl)c1 | inactive: 0.953
4 | COc1ccc(CN(C)C[C@H]2Oc3c(NC(=O)c4ccc(-c5nccs5)cc4)cccc3C(=O)N([C@@H](C)CO)C[C@@H]2C)cc1 | inactive: 1.03
5 | C[C@H](CO)N1C[C@H](C)[C@H](CN(C)C(=O)Nc2cccc3ccccc23)Oc2ccc(NS(=O)(=O)c3cccs3)cc2C1=O | inactive: 1.01
6 | Nc1cnn(-c2ccccc2)c(=O)c1N | inactive: 1.01
7 | C[C@@H]1CN([C@H](C)CO)C(=O)CCCn2cc(nn2)CO[C@@H]1CN(C)Cc1cccc2c1OCCCO2 | inactive: 0.961
8 | CC(C)NC(=O)N(C)C[C@H]1OCCCC[C@H](C)Oc2ccc(NC(=O)Nc3cccc4ccccc34)cc2C(=O)N([C@H](C)CO)C[C@H]1C | inactive: 0.976
9 | CC(C)NC(=O)N(C)C[C@H]1Oc2ccc(NS(=O)(=O)c3ccccc3)cc2CC(=O)N([C@H](C)CO)C[C@@H]1C | inactive: 1.02
10 | CC(C)CNC(=O)C(=O)NC(C)C | inactive: 0.942
11 | C[C@@H]1CN([C@@H](C)CO)C(=O)c2cc(-c3ccc(C(=O)N(C)C)cc3)cnc2O[C@H]1CN(C)C(=O)CN(C)C | inactive: 1.02
12 | N#CNC1=NCN(CCN2CCOCC2)CN1 | inactive: 1.05
13 | C[C@@H]1CN([C@@H](C)CO)C(=O)c2cc(NC(=O)Nc3ccccc3)ccc2O[C@@H]1CN(C)Cc1ccc(Cl)c(Cl)c1 | inactive: 1.01
14 | COCC#Cc1ccc2c(c1)O[C@@H](CN(C)S(=O)(=O)c1cccc(F)c1)[C@H](C)CN([C@H](C)CO)S2(=O)=O | inactive: 1.03
15 | COc1ccc(S(=O)(=O)Nc2ccc3c(c2)CC(=O)N([C@H](C)CO)C[C@@H](C)[C@@H](CN(C)S(=O)(=O)c2ccc(OC)cc2)O3)cc1 | inactive: 0.975
16 | C[C@H](NC(=O)[C@@H](Cc1ccc2ccccc2c1)NC(=O)[C@@H](C)N)C(=O)N[C@@H](Cc1c[nH]c2ccccc12)C(=O)N[C@H](Cc1ccccc1)C(=O)N[C@@H](CCCCN)C(N)=O | inactive: 0.98
17 | [O-][NH2+]N(O)c1ccccc1 | inactive: 0.988
18 | N[C@@H](CC(=O)NO)C(=O)O | inactive: 1.02
19 | COc1ccc([Si](C)(C)[C@@H]2[C@@H](CC(=O)N(CCO)Cc3ccccc3)O[C@]3(C(=O)N(Cc4cccc(N5CCOC5=O)c4)c4ccccc43)[C@H]2C)cc1 | inactive: 1.02
20 | CC(C)NC(=O)N(C)C[C@@H]1Oc2ccc(NS(=O)(=O)c3ccc(F)cc3)cc2CC(=O)N([C@@H](C)CO)C[C@H]1C | inactive: 1.02

Row | SMILES | relative growth
21 | C[C@@H]1CCCCO[C@H](CN(C)C(=O)Nc2cccc3ccccc23)[C@@H](C)CN([C@H](C)CO)C(=O)c2cc(NC(=O)Nc3ccc(F)cc3)ccc2O1 | inactive: 1
22 | CN1CCN(c2ccc(OC(F)(F)F)c(Nc3ncc4c(n3)-c3c(c(C(N)=O)nn3CCO)CC4)c2)CC1 | inactive: 0.989
23 | CCCN(C)C[C@H]1OCCCC[C@@H](C)Oc2ccc(NC(=O)C3CCCCC3)cc2C(=O)N([C@H](C)CO)C[C@H]1C | inactive: 0.999
24 | CC(=O)n1cc([C@H]2C=C(C(=O)N3CCCCCCC3)O[C@@H](OCc3ccc(CO)cc3)C2)c2ccccc21 | inactive: 1.04
25 | C[C@@H]1CN([C@@H](C)CO)C(=O)CCCn2cc(nn2)CO[C@@H]1CN(C)C(=O)Nc1ccnc(N2CCOCC2)c1 | inactive: 0.981
26 | COC(=O)CNS(=O)(=O)c1ccsc1C(=O)OC | inactive: 1.02
27 | Brc1c(NC2=NCCN2)ccc2nccnc12 | inactive: 1.03
28 | C[C@@H]1CN([C@@H](C)CO)C(=O)c2cc(C#CCN(C)C)cnc2O[C@H]1CN(C)C(=O)c1ccc2c(c1)OCO2 | inactive: 1.03
29 | Cc1noc(C)c1S(=O)(=O)N(C)C[C@@H]1OCCCC[C@@H](C)Oc2ccc(NS(=O)(=O)c3cn(C)cn3)cc2C(=O)N([C@H](C)CO)C[C@@H]1C | inactive: 1
30 | Cc1noc(C)c1NC(=O)Nc1ccc2c(c1)C(=O)N([C@@H](C)CO)C[C@H](C)[C@H](CN(C)S(=O)(=O)c1c(C)noc1C)O2 | inactive: 1
31 | Cc1ccc(S(=O)(=O)N(C)C[C@@H]2Oc3ccc(NC(=O)Cn4cnnn4)cc3CC(=O)N([C@@H](C)CO)C[C@H]2C)cc1 | inactive: 1.01
32 | C[C@@H]1CN([C@H](C)CO)C(=O)Cc2cc(NC(=O)CCCCCC(=O)Nc3ccccc3N)ccc2O[C@@H]1CN(C)C(=O)Nc1ccccc1 | inactive: 1.02
33 | C=CCNC(=O)[C@@H]1[C@H]2C(=O)O[C@H](c3ccccc3)[C@H](c3ccccc3)N2[C@H](c2ccc(OCCO)cc2)[C@@]12C(=O)Nc1ccc(C#CC3=CCCCC3)cc12 | inactive: 1.08
34 | Cc1noc(C)c1S(=O)(=O)Nc1ccc2c(c1)C(=O)N([C@@H](C)CO)C[C@@H](C)[C@@H](CN(C)Cc1ccc(C(=O)O)cc1)O2 | inactive: 1
35 | C[C@H](CO)N1C[C@H](C)[C@@H](CN(C)Cc2ccc(Oc3ccccc3)cc2)Oc2ccc(NC(=O)Cc3ccccc3)cc2CC1=O | inactive: 1.03
36 | Cn1cc(N2C[C@]3(COCCN(C(=O)C4CC4)C3)OCC2=O)cn1 | inactive: 1.02
37 | COc1cccc(NC(=O)N[C@@H]2C=C[C@H](CC(=O)N3CCOCC3)O[C@@H]2CO)c1 | inactive: 1
38 | C[C@@H]1CCCCO[C@@H](CN(C)C(=O)C2CCCCC2)[C@H](C)CN([C@@H](C)CO)C(=O)c2cc(NC(=O)Nc3cccc4ccccc34)ccc2O1 | inactive: 1.04
39 | Cc1noc(C)c1NC(=O)N(C)C[C@@H]1Oc2cc(C#CCN(C)C)ccc2S(=O)(=O)N([C@H](C)CO)C[C@H]1C | inactive: 1.02
40 | C[C@H]1CN([C@@H](C)CO)C(=O)c2cc(C#Cc3ccccc3F)cnc2O[C@@H]1CN(C)S(=O)(=O)c1ccccc1F | inactive: 1.05

Row | SMILES | relative growth
41 | Cc1ccc(S[C@]2(C(=O)NCCCN(C)C)CC(=O)N(Cc3cc(C(F)(F)F)cc(C(F)(F)F)c3)[C@@H]2c2ccc(CO)cc2)cc1 | inactive: 1.02
42 | O=C(O)c1ccccc1OP(=O)(O)O | inactive: 0.996
43 | C[C@H](CO)N1C[C@H](C)[C@H](CN(C)Cc2ccc(Cl)c(Cl)c2)Oc2c(NS(=O)(=O)c3ccccc3)cccc2C1=O | inactive: 0.988
44 | COCC(=O)Nc1ccc2c(c1)OC[C@H](C)N(C(=O)c1ccccc1F)C[C@H](C)[C@H](OC)CN(C)C2=O | inactive: 0.99
45 | C[C@H](CO)N1C[C@H](C)[C@@H](CN(C)Cc2ccc(Oc3ccccc3)cc2)Oc2c(NS(=O)(=O)c3ccc(F)cc3)cccc2C1=O | inactive: 0.992
46 | C[C@H](CO)N1C[C@H](C)[C@@H](CN(C)S(=O)(=O)c2ccccc2F)Oc2cc(C#Cc3ccccc3)ccc2S1(=O)=O | inactive: 1.07
47 | CC(=O)N1[C@H](C(=O)N2CCc3ccccc3C2)[C@@H](CO)[C@@H]2Cn3c(cccc3=O)[C@@H]21 | inactive: 0.985
48 | C[C@H]1CN([C@@H](C)CO)C(=O)c2cc(NC(=O)CCN3CCOCC3)ccc2O[C@H]1CN(C)C(=O)Nc1ccc2c(c1)OCO2 | inactive: 0.99
49 | C[C@@H]1CN([C@H](C)CO)C(=O)Cc2cc(NC(=O)CCCCCC(=O)Nc3ccccc3N)ccc2O[C@@H]1CN(C)S(C)(=O)=O | inactive: 0.986
50 | CCc1cc(=O)oc2cc(C)c3c(-c4ccccc4)coc3c12 | inactive: 1.01
51 | COc1ccccc1CN(C)C[C@H]1OCc2ccccc2-c2c(n(C)c3ccccc23)C(=O)N([C@@H](C)CO)C[C@H]1C | inactive: 1.01
52 | CN(C)CC#Cc1ccc([C@@H]2[C@H](CO)N3C(=O)CN(C(=O)CN(C)C)C[C@@H]23)cc1 | inactive: 1.03
53 | C[C@@H]1CN([C@H](C)CO)C(=O)c2cc(N(C)C)ccc2O[C@@H](C)CCCCO[C@@H]1CN(C)S(C)(=O)=O | inactive: 1.04
54 | O=C(C[C@@H]1CC[C@H]2[C@@H](COC[C@@H](O)CN2S(=O)(=O)c2ccc(Cl)cc2)O1)N[C@H]1CCN(Cc2ccccc2)C1 | inactive: 1.02
55 | C[C@@H]1CN([C@@H](C)CO)C(=O)Cc2cc(NC(=O)Nc3ccccc3)ccc2O[C@@H]1CN(C)S(C)(=O)=O | inactive: 0.985
56 | COc1ccc2c3c([nH]c2c1)[C@@H](CO)N(C[C@]13CCN(CC1)Cc1nccs1)C(=O)C1CCOCC1 | inactive: 1.03
57 | C[C@@H]1CCCCO[C@@H](CN(C)CC2CC2)[C@@H](C)CN([C@H](C)CO)C(=O)c2cc(NC(=O)Nc3cccc4ccccc34)ccc2O1 | inactive: 0.987
58 | CO[C@H]1CN(C)C(=O)c2cc(NS(C)(=O)=O)ccc2OC[C@H](C)N(C(=O)C2CCOCC2)C[C@@H]1C | inactive: 0.954
59 | Oc1cc(O)c2c(c1)OC(c1cc(O)c(O)c(O)c1)C(O)C2c1c(O)cc(O)c2c1OC(c1cc(O)c(O)c(O)c1)C(O)C2c1c(O)cc(O)c2c1OC(c1cc(O)c(O)c(O)c1)C(O)C2 (stereo not given) | inactive: 0.985
60 | C[C@H](CO)N1C[C@H](C)[C@@H](CN(C)C(=O)Cc2ccccc2)OCCCC[C@H](C)Oc2ccc(NS(=O)(=O)c3ccc(Cl)cc3)cc2C1=O | inactive: 1
